Measurements as given in PubChem BioAssay AID1347041 (National Center for Advancing Translational Sciences (NCATS), 2019).
Screen size: about 480,000 compounds; about 740 (0.15%) were called active. The shares of active, inactive and inconclusive entries below differ from those in the screen. Rule as the data show it: active = activity change below about -30%; inconclusive = mostly about -25% to -30%; inactive = weaker than that. Some structures have more than one record in an assay (separate samples or runs), and their calls can disagree.

The compounds below were run against L-lactate dehydrogenase A chain (Homo sapiens) (UniProt P00338) (assay: qHTS assay for inhibitors of human lactate dehydrogenase). Conditions: purified LDHA, NADH/diaphorase-resazurin fluorescence; hits give low values.
In short: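 Resorufin fluorescence (ex540/em590), read at 0 and 20 min after diaphorase/resazurin addition, reports the NADH left after a 5 min room-temperature reaction of 2 nM human LDH5 with 0.06 mM NADH and 0.2 mM pyruvate.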
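Also: values are at about 110 or 230 µM; plate controls were DMSO wells for no effect and wells without enzyme for full effect.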

Activity change, inconclusive:
O=C(O)CCN1C(=O)/C(=C/c2cn(-c3ccccc3)nc2-c2cccs2)SC1=S -25.1%
CCOCCOc1cccc(N)c1 -28.1%
CCN(C(=O)COC(=O)Cc1sc(N)nc1-c1ccc(C)cc1)c1cccc2ccccc12 -26.3%
COc1ccc(NC(=O)c2c(-c3ccccc3)oc3ccc(OC)cc23)cc1 -25.7%
Cc1nn(C)c2sc(C(=O)N3CCN(S(=O)(=O)c4ccc(F)cc4)CC3)cc12 -25%
Cc1c(C(=O)N2CCC(c3nc4ccccc4o3)CC2)oc2cc(Br)ccc12 -29.1%
CC(C)(C)c1ccc(C(=S)NCCC2=CCCCC2)cc1 -26.8%
CC(=O)Nc1cccc(-c2csc(NCc3ccccc3)n2)c1 -26%
CCc1ccc(CN2CCN(S(=O)(=O)Cc3ccccc3)CC2)cc1 -25.6%
O=C(Nc1ccncc1)C12CC3CC(CC(Br)(C3)C1)C2 -28.6%
Cc1ccccc1C(C)Nc1ccc(S(N)(=O)=O)cc1[N+](=O)[O-] (stereo unspecified) -27.2%
CCOc1ccc(CN(C)CC(O)COc2ccc(C)cc2C)cc1OC (stereo unspecified) -25.5%
Cc1ccc(Nc2cccc3ccccc23)cc1 -27.2%
O=C(Cn1ccn2nc(-c3ccccc3)cc2c1=O)Nc1cccc(Cl)c1 -26%
Cc1ccc(C)c(N2CCN(CCN3CCCCC3)CC2)c1 -27.6%
CC(CCc1ccccc1)NC(=O)Cc1cccc2ccccc12 (stereo unspecified) -26.8%
COc1ccc(NC(=O)CN(C)CC(=O)Nc2cccc(F)c2)cc1S(=O)(=O)N1CCCCC1 -27.6%
Cc1c(C(=O)OCC(=O)NCC2CCCO2)sc2cccc(F)c12 (stereo unspecified) -28.1%
Cc1ccccc1CN1CCN(S(=O)(=O)c2ccc(F)cc2)CC1 -25.1%
COc1cc(C(C)=O)ccc1OCc1ccc(C#N)cc1 -27.9%
COc1ccc(OC)c(NC(=O)CSc2ncccn2)c1 -28.8%
O=C(c1cccnc1)N1CCN(Cc2cccc(F)c2)CC1 -29%
O=C(N/N=C/c1ccccc1[N+](=O)[O-])NC1CCCCC1 -29.8%
Cc1cccc(C)c1OCCCn1ccnc1 -27.1%
Cc1cccc(OCCn2c(C)nc3cc(C)c(C)cc32)c1 -29.8%
CCCn1nc(C(=O)NC2CCCCCC2)c2ccccc2c1=O -25.7%
O=c1oc2c(O)c(O)cc3c(=O)oc4c(O)c(O)cc1c4c23 -26.2%
O=C(Nc1cc(Cl)cc(Cl)c1)C(NCCO)c1ccccc1 (stereo unspecified) -30.3%
CCC(CC)NC(=O)COC(=O)c1cc(C)ccc1C -28.7%
CCN1CCN(CC(=O)Nc2nc3ccc(OC)cc3s2)CC1 -26.3%
Nc1c(N(Cc2ccco2)C(=O)COc2ccc3ccccc3c2)c(=O)[nH]c(=O)n1Cc1ccccc1 -25.7%
CN(Cc1ccccc1F)C(=O)CN1CCN(c2oc(-c3ccco3)nc2C#N)CC1 -26.2%
COc1cccc(-c2nc(-c3cc4cccc(C)c4nc3OC)no2)c1 -26.2%
COc1cccc(-c2cc(C(=O)NCCC(C)C)c3ccccc3n2)c1 -25.3%
CCc1ccccc1-n1c(SCC(=O)NC(C)c2cc3ccccc3o2)nnc1N1CCOCC1 (stereo unspecified) -26.4%
O=c1[nH]nc(-c2ccco2)c2c1Nc1nnnn1C2c1ccccc1Cl (stereo unspecified) -26%
O=C(Nc1ccncc1)c1ccc(COc2cc(Cl)ccc2Cl)cc1 -26.2%
CCOC(=O)c1c(C)c(C(=O)Nc2ccc(F)c(Cl)c2)c(C)n1C -26%
CN1CCC(N(C)CC(=O)Nc2ccccc2N2CCOCC2)CC1 -27%
Cc1cc2c(cc1C)[n+](C)cn2CC(O)COCc1ccccc1 (stereo unspecified) -29.6%
CCC(=O)N1CCN(c2ccccc2NC(=O)c2ccc(C#N)cc2F)CC1 -26.8%
COc1ccc(CN2CCN(C(=O)c3cccc(OC)c3OC)CC2)cc1OC -29.5%
FC(F)(F)c1cccc(N2CCN(Cc3cccnc3)CC2)c1 -25.5%
Cc1ccc(NC(=O)CNCC(c2ccccc2)N(C)C)cc1F (stereo unspecified) -29.6%
C[C@H](CO)N1C[C@H](C)[C@@H](CN(C)S(=O)(=O)c2ccccc2)Oc2ccc(NS(=O)(=O)c3cccs3)cc2C1=O -26%
COc1cccc(C(=O)N2CCN(Cc3ccco3)CC2)c1OC -29.6%

Activity change, active:
Cc1cc(SCC(=O)Nc2ccc(F)c(F)c2F)nc2ccccc12 -34.2%
C=CCn1c(NCCCOC)nc2c1c(=O)[nH]c(=O)n2C -34.5%
Cc1ccc(C)c(-c2cc(C)ncc2C)c1 -30.5%
c1cc[n+](CCC[n+]2ccccc2)cc1 -31%
CC1C[N+](=C2C=C(N3CCOCC3)CC(C)(C)C2)CC(C)O1 (stereo unspecified) -56.8%
O=C(C1CCCN(Cc2cccnc2)C1)N1CCCCC1 (stereo unspecified) -36.1%
COc1cc(/C=C2/SC(=S)NC2=O)ccc1OS(=O)(=O)c1ccc(C)cc1 -34.3%
O=C(N/N=C/c1ccc(-c2ccc(S(=O)(=O)Nc3ncccn3)cc2)o1)c1cc2ccccc2cc1O -45.9%
CCOC(=O)N1CCC(N2CCN(S(=O)(=O)CC)CC2)CC1 -33.6%
Cc1cc(C)c2nc(Nc3nc(C(C)C)cc(=O)[nH]3)nc(C)c2c1 -31.8%
C[n+]1c(/C=C/c2ccc3c(c2)OCO3)ccc2ccccc21 -32.6%
O=C(NCCC(=O)N1CCN(c2ncccn2)CC1)c1ccc(Br)cc1 -31.6%
CC(=O)Oc1ccc2cc(-c3ccccc3)c(=O)oc2c1 -30.8%
O=C(/C=C/c1ccccc1Cl)Nc1ccc2c(c1)C(=O)NC2=O -46.3%
O=C(Nc1cccc(C(=O)Nc2ccc(S(=O)(=O)O)c3cc(S(=O)(=O)O)cc(S(=O)(=O)O)c23)c1)Nc1cccc(C(=O)Nc2ccc(S(=O)(=O)O)c3cc(S(=O)(=O)O)cc(S(=O)(=O)O)c23)c1 -112%
CC1(C)CC(=O)C(Sc2ccccc2[N+](=O)[O-])=C(O)C1 -78.2%
Brc1cccc[n+]1CCC[n+]1ccccc1Br -65.1%
COc1ccccc1OC(C(=O)NC1CC1)c1ccccc1 (stereo unspecified) -30.3%
CN1CC[n+]2cnc3ccccc3c21 -33.2%
c1csc(CN2CCOCC2)c1 -30.9%
O=C(N/N=C/c1sc(=O)n(Cc2ccc(Br)cc2)c1Cl)c1ccco1 -46.1%
CCOC(=O)c1c(-c2ccccc2)csc1NC(=O)C(C)NCCCN1CCOCC1 (stereo unspecified) -33.7%
CN1CCN(CCCCOc2ccccc2-c2ccccc2)CC1 -36.2%
O=C(Nc1ccc(Cl)cc1)Nc1cccnc1 -34.2%

Activity change, inactive:
CCOC(=O)N1CCc2c(sc3c2c(=O)n(CCc2ccccc2)c(=O)n3Cc2cc(C)ccc2C)C1 -14.8%
Cc1ccc(NS(=O)(=O)c2ccc(-c3cc(C)no3)cc2)c(Br)c1 -1.2%
Cc1ccc(S(=O)(=O)c2cc3ccccc3oc2=Nc2ccc3c(c2)OCO3)cc1 -1.06%
COCCn1c(=S)[nH]c2cc(C(=O)N3CCN(Cc4ccc5c(c4)OCO5)CC3)ccc2c1=O -1.99%
Cc1nc2ccccc2c(=O)n1/N=C/c1ccc(O)cc1O -0.289%
Nc1nccnc1C(=O)NCc1ccccc1CN1CCCCC1 -0.994%
CCn1cnc2c1c(=O)n(CC(=O)Nc1ccccc1N1CCCC1=O)c(=O)n2Cc1ccccc1 3.85%
CCCCc1ccc(-n2nnnc2SCC(=O)Nc2cccc(OC)c2)cc1 -5.73%
CCOc1ccc(OCCC(=O)OCC(=O)N2CCN(S(=O)(=O)c3ccc(Cl)cc3)CC2)cc1 -2.54%
O=C(OCCCc1ccccc1)c1cccnc1 2.75%
OCc1c[nH]c2ccccc12 -1.14%
COc1cc(Cl)cc(/C=C/c2ccc3ccccc3n2)c1OC(C)=O 2.35%
O=C(Nc1cc(-n2cnnn2)ccc1Cl)c1ccc(Br)o1 -4.64%
O=C(C1=C[C@H](c2csc3ccccc23)C[C@H](OCc2ccc(CO)cc2)O1)N1CCCCCCC1 2.11%
Cc1ccc(CN(Cc2cc(=O)n3[nH]c(-c4cccc(C)c4)cc3n2)CC(C)C)cc1 4.56%
O=c1[nH]c(CSc2nnnn2-c2ccccc2)nc2ccsc12 1.69%
CCc1nc2c(OCc3c(C)noc3C)cccn2c1N(C=O)Cc1ccccc1 -0.916%
Cc1ccc(S(=O)(=O)N2C(c3cccc(Cl)c3)CC=C(C(=O)O)C2c2cccc(Cl)c2)cc1 (stereo unspecified) -5.38%
NC(=O)CNC(=O)C1CCCc2c1[nH]c1ccc(Cl)cc21 (stereo unspecified) -0.703%
Cc1nc(N)nc(N)c1-c1ccc(Cl)c(Cl)c1 -8.3%
COc1ccccc1NC(=O)CSc1nnc(C2CCCCC2)n1-n1cccc1 4.45%
